Measured values: PubChem BioAssay AID485344 (National Center for Advancing Translational Sciences (NCATS), 2010)
“And” between values parts separate entries of the source, which are not always exact repeats. Equal values may be shown once. Among all 340,000 compounds or so, about 6,900 (2%) were called active. Rule as the data show it: active = inhibition above about 30%; inactive = below that, where a call was filed. The list shows a part of the results, in another mix than the full data. The source gives no active or inactive call for entries shown without one.

Target: D(2) dopamine receptor (Homo sapiens) (UniProt P14416)
Assay: HTS Assay for Allosteric Antagonists of the Human D2 Dopamine Receptor: Primary Screen for Antagonists; also: 0% is about no effect
Details: HEK293 TREx D2 cells, calcium flux, dopamine EC80; at 10 µM; stronger effect = higher value
Outline: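 Dopamine at EC80 is the agonist stimulus; test compounds precede it by 180 s. Calcium flux read kinetically in a force-coupled, inducible HEK293 T-REx D2 cell line.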

Sequence of UniProt P14416 (P14416 whole entry, looked up): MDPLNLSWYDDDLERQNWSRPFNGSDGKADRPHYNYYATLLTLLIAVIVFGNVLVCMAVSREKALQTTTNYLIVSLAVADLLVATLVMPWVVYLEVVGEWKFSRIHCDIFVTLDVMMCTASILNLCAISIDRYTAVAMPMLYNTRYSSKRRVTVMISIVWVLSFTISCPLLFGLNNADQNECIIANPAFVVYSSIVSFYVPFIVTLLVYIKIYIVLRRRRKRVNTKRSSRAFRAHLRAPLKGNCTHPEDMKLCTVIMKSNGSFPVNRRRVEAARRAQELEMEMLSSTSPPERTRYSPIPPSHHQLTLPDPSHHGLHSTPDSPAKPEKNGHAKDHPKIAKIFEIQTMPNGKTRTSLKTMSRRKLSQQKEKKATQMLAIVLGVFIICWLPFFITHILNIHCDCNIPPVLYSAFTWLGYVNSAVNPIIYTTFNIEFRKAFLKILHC

Row | SMILES | inhibition
1 | COc1ccc(NC(=O)Cn2c(=O)n(Cc3ccccc3)c(=O)c3oc4ccccc4c32)cc1Cl | 10.4%
2 | Cc1ccc(C)c(-n2cc(-c3ccccc3)nc2SCC(=O)Nc2ccccc2)c1 | 4.14%
3 | Cc1nc(N2CCCC2)ncc1C(=O)N1CCN(c2ccc(Cl)cc2)CC1 | 16.3%
4 | COc1ccc(CNC(=O)c2ccc(CSc3nc4ccncc4n3Cc3ccccc3F)cc2)cc1 | 5.28%
5 | COc1ccc(NC(=O)C(C)n2nc(-c3cc(C)ccc3C)c3c(c2=O)CCCC3)cc1 (stereo unspecified) | -23.7%
6 | CCc1cccc(NC(=O)CSc2ncc3c(n2)-c2ccccc2N(CC)S3(=O)=O)c1 | 9.69%
7 | CCC(=O)Nc1nnc(/C=C/c2ccc(OC)cc2)s1 | active: 35.4%
8 | Cc1oc(-c2ccccc2)cc1C(=O)NC1CCN(Cc2ccccc2)CC1 | active: 69.4%
9 | O=C(NCCc1ccccc1)C(=O)NCC(c1ccco1)S(=O)(=O)c1ccccc1 (stereo unspecified) | 17.6%
10 | COCCCNC(=O)CCC(=O)NNc1nc2ccccc2c2nc(-c3ccccc3)nn12 | -2.72%
11 | CCOc1ccc(NC(=O)CSc2nnc(-c3ccncc3)n2-c2ccccc2)cc1 | -1.1%
12 | COCCNC(=O)CSc1nc2cc3c(cc2c(=O)n1Cc1ccc(C(=O)NCCc2ccc(OC)c(OC)c2)cc1)OCO3 | 7.36%
13 | Cc1ccc(N2C(=O)CS(=O)(=O)C23C(=O)N(C)c2ccccc23)cc1F (stereo unspecified) | -1.53%
14 | Cc1ccc(C)c(Nc2cc(C(=O)NCCCN(C)C3CCCCC3)c3ccccc3n2)c1 | 15.6%
15 | Cc1ccc(N2CCN(C(=O)c3c(C)oc4ncnc(N5CCOCC5)c34)CC2)c(C)c1 | -13%
16 | COc1cc(NC(=O)NCC2CCN(Cc3ccc(C)cc3)CC2)cc(OC)c1OC | -9.55% and active: 33.3%
17 | Cc1ccc(CN2CCCn3nc(C(=O)NCc4cc(C)ccc4C)cc3C2=O)cc1 | -10.9%
18 | Cc1ccc(CNC(=O)c2cnc3c(-c4ccccc4)c(C)nn3c2C)o1 | -6.34%
19 | COc1ccc(N(CC(=O)N/N=C/c2ccc(C(=O)O)cc2)S(=O)(=O)c2ccc(NC(C)=O)cc2)cc1 | active: 56.2%
20 | O=[N+]([O-])c1cc(-c2nc(-c3ccccn3)no2)ccc1NCc1ccccc1 | 7.67%
21 | O=C(O)CCc1nnc2cnc3ccccc3n12 | 0.459%

Row | SMILES | inhibition
22 | Cc1ccc2ncc(C(=O)NC(C)c3ccccc3)c(=O)n2c1 (stereo unspecified) | 11.5%
23 | CC(=O)N1CCC2(CC1)OC(=O)C(C)=C2C(=O)NCc1cccc(Cl)c1 | -5.94%
24 | COCCNCCCOc1ccc(Br)cc1Cl | active: 33.2%
25 | CN(Cc1ccccc1)C(=O)C1CCC(CNS(=O)(=O)c2ccc3c(c2)CCCC(=O)N3)CC1 (stereo unspecified) | 7.69%
26 | Cc1ccc2nc(NC(=O)c3nc(SCc4ccccc4C)ncc3Cl)sc2c1 | -6.18%
27 | Cc1ccc(N2CCN(C(=O)C3CCN(c4ncnc5c4nc4n5CCCCC4)CC3)CC2)c(C)c1 | 5.4%
28 | COCCCNC(=O)c1cnn(-c2ccc(F)cc2F)c1C1CCNCC1 | -8.59%
29 | Clc1ccc(Cl)c(OCCCCN2CCCCC2)c1 | active: 86.3%
30 | O=C(Cn1c(=O)oc2cc(S(=O)(=O)NCc3ccccc3)ccc21)NCc1ccccc1Cl | -17.5%
31 | Nc1ccc2nc(-c3ccc(O)cc3)sc2c1 | -4.13%
32 | Cc1ccc2scc(N3CCCCC3)c(=O)c2c1 | 0.646%
33 | CC(C(=O)Nc1ccc([N+](=O)[O-])cc1)N1CCN(C/C=C/c2ccccc2)CC1 (stereo unspecified) | active: 52.7%
34 | COc1ccc(NC(=O)CC2C(=O)N(c3ccc(F)cc3)C(=O)N2CCc2sccc2C)cc1 (stereo unspecified) | 6.45%
35 | CCn1ccc2cc(S(=O)(=O)N3CCC(C(=O)NCCc4ccccc4)CC3)ccc21 | 18.9%
36 | COc1cc(OC)c(NC(=O)c2c(C)oc3nc(C)nc(N4CCOCC4)c23)cc1Cl | 5.27%
37 | O=C(NCCN1CCN(C(=O)c2ccc(F)cc2)CC1)c1ccc(F)cc1 | active: 64%
38 | COc1cccc(-n2cc(C(=O)OCc3ccc(Cl)cc3)c3ccccc3c2=O)c1 | 26.1%
39 | CCOc1ccc(-n2c(=O)c3c(C)c(C)sc3n(CC(=O)N3CCC(C)CC3)c2=O)cc1 | 2.14%
40 | Cc1cccc(CNC(=O)c2ccc(C)c(-n3c(C)nc4cccnc43)c2)c1 | -0.298%
41 | Cc1ccsc1C(=O)NNC(=O)c1csc(N2CCOCC2)n1 | active: 31.6%
42 | O=C(NCc1ccccc1Cl)c1ccc(Cn2c(=O)c3cccn3c3cccnc32)cc1 | 10.3%

Row | SMILES | inhibition
43 | Cc1cc(C)c(NC(=O)CCCn2c(C)c3cnn(-c4ccccc4)c(=O)c3c2C)c(C)c1 | -3.46%
44 | Cc1ccc(CCNC(=O)c2cn(C)c3ccc(S(=O)(=O)N4CCC(C)CC4)cc3c2=O)cc1 | -4.19%
45 | CC(C)CC(=O)Nc1nnc(SCc2cc(=O)n3ccccc3n2)s1 | -7.21%
46 | COc1cc(OC)cc(-c2nc3nc(C)c(CCC(=O)NCCC(C)C)c(C)n3n2)c1 | 20.3%
47 | O=c1c(S(=O)(=O)c2cccc(Cl)c2)cn(Cc2ccccc2)c2cc(N3CCCCC3)c(F)cc12 | -18.1%
48 | CCN(CC)S(=O)(=O)c1ccc2[nH]cc(C(=O)NCCc3ccccc3)c(=O)c2c1 | -1.37%
49 | COc1ccccc1NC(=O)CN1C(=O)CSc2ccc(S(=O)(=O)N3CCCC3)cc21 | -1.82%
50 | CSCCC(NS(=O)(=O)c1ccc2c(c1)oc(=O)n2C)C(=O)N1CCN(c2ccc(C(C)=O)cc2)CC1 (stereo unspecified) | -10.1%
51 | CCc1ccc(-n2c(=O)c3cccnc3n2CC(=O)Nc2cc(OC)ccc2OC)cc1 | -1.4%
52 | CCc1ccccc1NC(=O)c1ccc(=O)n(Cc2ccc(F)cc2)c1 | -3.98%
53 | COc1cc(OC)cc(C(=O)Nc2nnc3n2CCS3)c1 | 9.18%
54 | Cc1ccc(C(=O)Nc2nc(-c3nnn(-c4cccc(C(F)(F)F)c4)c3C)ns2)cc1 | 4.69%
55 | CCOC(=O)c1c(C)oc2nc(C)nc(NCc3cccc(Cl)c3)c12 | -4.41%
56 | O=C(c1cccc(Cl)c1)n1nc(-c2cccnc2)nc1NCc1ccccc1 | 9.83%
57 | CCc1ccccc1NC(=O)N1CCCC(CCC(=O)N(C)CCc2ccccn2)C1 (stereo unspecified) | active: 32.8%
58 | CCOC(=O)c1nc(Nc2ccc(C(=O)OC)cc2)c2ccccc2n1 | -9%
59 | O=C(Nc1cccc(-c2nc3cccnc3s2)c1)c1cccc(Br)c1 | 10.8%
60 | CCOC(=O)c1ccc(NC(=O)c2cn(-c3ccccc3)nc2-c2ccc(OC)c(OC)c2)cc1 | 4.4%
61 | Cc1ccc(S(=O)(=O)c2nc(-c3cccs3)oc2SC(C)C)cc1 | 0.304%
